Several values for one entry are separate records, joined by “and”; a condition that tells them apart may be missing. Equal entries are not always repeated. In all, about 13,000 compounds were measured (“IFI”: median about 4, highest 2% from about 17 on). Some of the results follow.

The experiment is described as follows: GSK_TCMDC: Inhibition Frequency Index (IFI). The number of non-kinase HTS assays where a compound showed > 50 % inhibition, expressed as a percentage of the number of such assays in which the compound was tested (-0 is zero). In kind it is functional.
As for `COc1cc(-c2nc(-c3ccc([N+](=O)[O-])cc3)c(-c3ccccc3)[nH]2)cc(OC)c1O`, the IFI worked out at 3.5%.

As to `COc1cc2nc(NCCCN3CCCCC3)nc(NCc3ccccc3)c2cc1OC`, the IFI amounted to 4.76%.

`COc1cccc(O)c1CN1CCC2(CCCN(Cc3ccc(F)cc3)C2)C1` (stereo not given) showed an IFI of 2.44%.

In the case of `Cc1cccc2c1NC(=O)/C2=N/NC(=S)N(C)C`, the IFI is 9.52%.

`COc1ccc(NC(=O)/C=C/c2ccc(Cl)c(C(F)(F)F)c2)cc1OCCN(C(C)C)C(C)C` registered an IFI of 7.41%.

With `O=C(NCCCN1CCOCC1)c1cccc(Nc2nccc(Nc3ccc(Oc4ccccc4)cc3)n2)c1`, the IFI is 8.51%.

Compound `CCOc1c(OC)ccc2c1CCN(CCN1CCC(NC(=O)c3ccc(-c4cccc(C(F)(F)F)c4C(F)(F)F)cc3)CC1)C2` showed an IFI of 6.92%.

The compound `Cc1ccc(CN2CCN(c3cc4c(cc3Cl)CCN4C(=O)Cc3ccc(Cl)c(NC(=O)Nc4cccc(C#N)c4)c3)CC2)cc1` returned an IFI of 0.8%.

`N#Cc1ccc(CNCCCCCCCNCc2ccc(-c3ccccc3)cc2)cc1` displayed an IFI of 5%.

Take `CC1(C)CC2CC(C)(CN2C(=O)c2cc(C(C)(C)C)nn2Cc2ccccc2)C1` (stereo not given): the IFI came out at 5.36%.

In the case of `COc1ccc(S(=O)(=O)NC2CCN(c3ccc(C(F)(F)F)cc3NC(=O)OCC(C)C)CC2)cc1`, the IFI is -0%.

For `CC(C)c1ccc(NC(=O)Nc2ccc(Cn3ncc(N4CCCNCC4)c(Cl)c3=O)cc2)cc1`, the IFI is 11.6%.

Compound `CN(C)CCNCc1nc(-c2ccc3c(Nc4ccc(Cl)cc4F)ccnc3c2)cs1` showed an IFI of 3.6%.

The compound `CC(=O)Nc1cccc(C(=O)Nc2cccc(-c3ccc(-c4nc5cc(C(F)(F)F)ccc5[nH]4)s3)c2)c1` showed an IFI of 6.03%.

`COc1ccc(C2C(C(=O)Nc3ccc4c(c3)OCO4)c3cc(OC)c(OC)cc3C(=O)N2C)cc1` (stereo not given) displayed an IFI of -0%.

Compound `CC(C)Oc1cc(-c2ccc(S(C)(=O)=O)cc2)nc(N(Cc2cccc(F)c2F)Cc2cccc(F)c2F)n1` returned an IFI of -0%.

The compound `O=C1C(c2ccccc2)=C(Nc2ccc(OC(F)(F)F)cc2)c2ccccc21` had an IFI of 0.76%.

As for `CC(C)CC(=O)N1CCNC[C@@H]1C(=O)NCCSCc1c(F)cccc1Cl`, the IFI was 0.7%.

`CN(Cc1cccc(F)c1)C1CCN(c2cc(NC(=O)c3cccc(F)c3)ccn2)CC1` yielded an IFI of -0%.

Compound `COC(=O)c1ccc(OCC(O)CO)cc1O` (stereo not given) yielded an IFI of -0%.

`Cc1nc2ccc3ccc(CNc4ccc(C(=O)N[C@@H](CCC(=O)O)C(=O)N[C@@H](Cc5cccs5)C(=O)O)c(F)c4)cc3c2c(=O)[nH]1` yielded an IFI of 1.56%.

Take `COC(=O)c1cccc(CNCc2cccc(-c3ccc(-c4nc5ccccc5[nH]4)cc3)c2)c1`: the IFI is 7.84%.

For `Cc1cc(NC(=O)c2cccs2)ccc1OC1CCN(Cc2ccccc2)CC1`, the IFI turned out to be 3.33%.

For the compound `NC(=O)c1cc2nc(Nc3ccc(F)cc3)nc(Nc3ccc(S(N)(=O)=O)cc3)c2[nH]1`, the IFI was found to be 4.76%.

With `Cc1cc(N(C)C)nc(Nc2ccc(NC(=O)c3ccc(Br)o3)cc2)n1`, the IFI is 1.96%.

For `Nc1ncc(-c2ccc3ncccc3c2)c(N)n1`, the IFI turned out to be 2.67%.

As for `COc1ccc(CCNC(=O)c2ccccc2O)cc1-c1ccc(C(C)(C)C)cc1`, the IFI came to 3.91%.

The compound `O=C1OC(c2ccccc2)(c2ccccc2)CN1CC1CCN(Cc2ccc(O)c(Cl)c2)CC1` yielded an IFI of 7.87%.

`Cn1cc(CN2CCCC(COC(c3ccc(F)cc3)c3ccc(F)cc3)C2)cn1` (stereo not given) registered an IFI of 4.62%.

As for `CCCCN1CCN(CCCNc2c3ccccc3nc3ccccc23)CC1`, the IFI was 5.63%.

Turning to `COc1ccc(CN2CCC(NCc3ccc(C(F)(F)F)cc3)CC2)cc1`, the IFI came to 4.7%.

`CC(=NNC(=N)N)c1ccc2ccc3ccccc3c2c1` registered an IFI of 4.38%.

The compound `CCOC(=O)N1CCC(NC(=O)c2ccc(C(C)(C)C)cc2OC)CC1` had an IFI of 0.75%.

The compound `COc1ccc(NC(=O)NC2CCN(CCCCCNC(=O)/C=C/c3ccc(Cl)c(Cl)c3)CC2)cc1` registered an IFI of 2.01%.

`CN1CCN(c2ccc(Nc3c(C(N)=O)cnc4cc(-c5ccoc5)ccc34)cc2C(F)(F)F)CC1` had an IFI of 4.2%.

Turning to `O=c1cc(NCCCNCc2ccc(Cl)c(Cl)c2)[nH]c2ccc(Cl)cc12`, the IFI came to 4.14%.

`Cn1nc(-c2ccc(NC(=O)Nc3cc(C(F)(F)F)cc(C(F)(F)F)c3)c(F)c2)c2cnc(NCCN3CCOCC3)nc21`: the IFI was determined as 2.88%.

The compound `c1ccc2cc3c(NCCN4CCOCC4)ccnc3cc2c1` came in with an IFI of 0%.

Compound `O=C(N1CCN(c2ccc(C(F)(F)F)cc2[N+](=O)[O-])CC1)C(Cl)(Cl)Cl` showed an IFI of 3.96%.

In turn, `CCn1nc(C(=O)NC2CCOc3ccccc32)c2ccccc2c1=O` (stereo not given) showed an IFI of 2.04%.

As for `COc1ccc(N2CCN(CCCC/C=C/c3ccc(NC(=O)c4cc(Cl)cc(Cl)c4)cc3)CC2)c(OC)c1`, the IFI was 2.65%.

As to `c1cc(Cc2ccc(Nc3c4ccccc4nc4ccccc34)cc2)cc(Nc2c3ccccc3nc3ccccc23)c1`, the IFI was 5.22%.

`Cc1c(C(=O)C2CC2CN2CCC(N3CCCC3)CC2)sc2ccccc12` (stereo not given) displayed an IFI of 4.85%.

The compound `Cc1ccc(NC(=N)Nc2ncccc2OCc2c(F)cccc2Cl)cc1` came in with an IFI of 22%.

Regarding `COc1ccc(C=NN=c2cc(C)[nH]c3ccccc23)c(OC)c1`, the IFI came out at 6.62%.

Consider `O=C(c1ccc(-c2ccccn2)s1)N1CCc2cc3nccc(N4CCN5CCC[C@H]5C4)c3cc21`, for which the IFI came to 2.99%.

`COC(=O)c1ccc(NC(=O)Nc2cccc(CCNCc3ccccc3)c2)cc1` gave an IFI of 3.55%.

`COCCn1c(C)cc(C(=O)CN2C(=O)NC(C)(c3ccc(C(C)(C)C)cc3)C2=O)c1C` (stereo not given): the IFI amounted to 10.1%.

`CCn1cnc2c(Nc3cccc([N+](=O)[O-])c3)nc(N3CCC(N4CCCCC4)CC3)nc21` returned an IFI of 7.69%.

Turning to `Cc1ccccc1C1CCN(C2CCC(NC(=O)/C=C/c3cccc(F)c3F)CC2)CC1` (stereo not given), the IFI is 8.33%.

The compound `Clc1nc(Cl)c2c(ccn2Cc2ccccc2)n1` had an IFI of 0.74%.

With `Cc1cc(Nc2ccncc2)n2nc(C)c(-c3ccc(Cl)cc3)c2n1`, the IFI was 1.69%.

In the case of `COc1cc(Cc2cnc(N)nc2N)ccc1OCc1ccc(F)c(F)c1`, the IFI stood at 3.52%.

`CCC(CC)(Cc1ccccc1)NC(=O)[C@H](CC1CCCCC1)Nc1ccc(C#N)c2ccccc12` gave an IFI of 0.95%.

`Cc1cc(N[C@@H](CC(C)C)C(=O)NCc2cccc(F)c2)nc(Nc2ccccc2)n1`: the IFI is -0%.

As to `CCN(CC)CCN(Cc1ccc(-c2ccc(C(F)(F)F)cc2)cc1)C(=O)Cn1c(CCc2ccc(F)cc2)nc(=O)c2ccccc21`, the IFI came out at 8.21%.

The compound `O=C(Nc1cccc(C2=NCCN2)c1)Nc1cccc(C2=NCCN2)c1` gave an IFI of 0.72%.

`COc1cc(NC(=O)c2cc3c(C)nn(-c4cccc(C(F)(F)F)c4)c3s2)cc(OC)c1OC` displayed an IFI of 0.71%.

For `CC(=O)Nc1nc(C(=O)Nc2ccc(-c3cccc(-c4nc5cccc(C)c5[nH]4)c3)cc2)cs1`, the IFI was determined as 6.03%.

Regarding `COC(=O)c1cccc(NC(=O)NCCNc2ccnc(Nc3ccc(F)cc3)n2)c1`, the IFI amounted to 4.62%.

As to `O=C(NC1CCCCN(Cc2ccccc2O)C1)c1cccc(Cl)c1` (stereo not given), the IFI was 2.04%.

As for `CCCOc1c(CCNCCCCNCCc2ccc3ccccc3c2OCCC)ccc2ccccc12`, the IFI was found to be 14.7%.

For the compound `CC(CNc1nc(NCC(c2ccccc2)c2ccccc2)c2nc[nH]c2n1)c1ccccc1` (stereo not given), the IFI was found to be 4.55%.

For the compound `OCC(CO)(CO)NCc1ccc2c3c(cccc13)-c1ccccc1-2`, the IFI was 6.06%.

The compound `CCc1c(C)nc2nc(Cc3cccc(F)c3)nn2c1N1CCN(c2ccccn2)CC1` showed an IFI of -0%.

In turn, `CCCCn1c(N)c(N(Cc2ccco2)C(=O)C=Cc2cc(OC)c3c(c2)OCCO3)c(O)nc1=O` displayed an IFI of 1.22%.

`O=C(Nc1ccc(Cn2ncc(N3CCCNCC3)c(Cl)c2=O)cc1)Nc1ccc(-c2ccccc2)cc1`: the IFI was 6.16% and 10.3%.

Take `COc1cc2c(cc1S(=O)(=O)c1ccc(NC(=O)c3cc4ccccc4s3)cc1)CCN(C)CC2`: the IFI was found to be 10.5%.

As for `CCCc1cc(OC)c(CC2c3cc(O)c(C)cc3CCN2C)cc1OC` (stereo not given), the IFI came to 1.42%.

As to `COc1cc(OC)cc(C(=O)N2CCOC(CCN3CCC(c4ccccc4)CC3)(c3ccc(Cl)c(Cl)c3)C2)c1` (stereo not given), the IFI was 6.21%.

Take `COc1ccc(CC(=O)NC(CCN2CCC3(CCc4ccccc43)CC2)c2ccc(Cl)c(Cl)c2)cc1` (stereo not given): the IFI turned out to be 6.94%.

On to `Cc1noc(C)c1-c1cccc(CNCc2cccc(-c3cccc(-c4nc5cc(C(F)(F)F)ccc5[nH]4)c3)c2)c1`, for which the IFI stood at 5.83%.

The compound `COc1ccc(NC(=O)C2c3ccccc3C(=O)N(C3CCCC3)C2c2cccs2)c(OC)c1` (stereo not given) came in with an IFI of 5%.

In turn, `CCOc1cc2c(cc1OCC)C(c1cc(OC)c(O)cc1Cl)NCC2` (stereo not given) showed an IFI of 3.25%.

In turn, `CC(Cc1ccc(CNC(=O)c2ccc(CC(C)NCCc3cccc(Cl)c3)cc2)cc1)NCCc1cccc(Cl)c1` (stereo not given) had an IFI of 7.09%.

`COc1ccc2ncc(F)c(CCN3CCC(NCc4cc5c(cn4)OCCS5)CC3)c2c1` came in with an IFI of 3.65%.

Consider `Cc1onc(-c2c(Cl)cccc2Cl)c1C(=O)N1CCc2cc3nccc(N4CCN5CCC[C@H]5C4)c3cc21`, for which the IFI came out at 2.26%.

The compound `O=S(=O)(NCCN1CCCC1)c1ccc(-c2cccc(CNCCc3cccs3)c2)cc1` returned an IFI of 9.52%.

`O=C(Nc1ccncc1)c1cc(C(=O)Nc2ccncc2)cc([N+](=O)[O-])c1`: the IFI is 1.52%.

`N=C(N)NN=Cc1c2ccc(Cl)cc2c(Cl)c2ccc(Cl)cc12` registered an IFI of 4.51%.

For `c1cc(CN2CCN(CCN3CCOCC3)CC2)cc(-c2csc(-c3nc4ccccc4[nH]3)c2)c1`, the IFI is 1.39%.

Compound `O=C(Nc1ccccc1)Nc1cccc(-c2cccc(-c3nc4cc(F)ccc4[nH]3)c2)c1` came in with an IFI of 3%.

`Cc1cc(N[C@@H](CC(C)C)C(=O)NCCc2ccccc2)nc(NCC2CCCCC2)n1` returned an IFI of 16.3%.

For the compound `Oc1ccc(Cl)cc1-c1cc(C(F)(F)F)nc(-c2ccccc2)n1`, the IFI amounted to 0.72%.

For `CCNc1cc(C(=O)NC(Cc2ccccc2)C(O)CNC2CCSCC2)cc(N2CCCC2=O)c1` (stereo not given), the IFI is -0%.

Consider `CN(C)C(=O)c1ccc(CN(Cc2cccc(OC(C)(C)C)c2)Cc2ccc3c(c2)OCCO3)cc1`, for which the IFI came out at 3.13%.

Take `CCc1ccc(CN2CCC(CNC(=O)c3cc(-c4ccccc4F)cs3)C2)cc1` (stereo not given): the IFI was found to be 10.2%.

`CC(CCc1ccc(OCc2ccccc2)cc1)NCC(O)c1ccccc1` (stereo not given) showed an IFI of 9.56%.

`Cc1ccc(NC(=S)NC2CCN(CCCCCNC(=O)/C=C/c3ccc(Cl)c(Cl)c3)CC2)cc1Cl` gave an IFI of 11.1%.

`CC1(C)NC(N)=NC(=N)N1OCc1cc(Cl)c(Cl)cc1CON1C(=N)N=C(N)NC1(C)C` gave an IFI of 2.11%.
